Experimental data published in patent US20090241221A1, “TANDEM REAPEAT DNA CONSTRUCTS PRODUCING PROTEINS THAT ATTACK PLANT PATHOGENIC VIRUSES, FUNGI, AND BACTERIA BY DISRUPTING TRANSCRIPTION FACTORS ESSENTIAL FOR REPLICATION THEREOF IN PLANTS” (priority 2008, published 2009).

Test system: pathogenic fungus present in the test tube water
Assay: Resistance of Portulaca to pathogenic fungus in the test tube water
Details: treatment for 10 days

**Q.** `O=C(O)c1ccccn1` [picolinic acid, 2-pyridine carboxylic acid] was tested. Which “fungal toxin disease resistance” value did it give?
**A.** fungal toxin disease resistant
